IC50 is the fitted dose that halves viability relative to control wells, and lower means more sensitive; a limit (>, <) means that the fit lies beyond the doses tested. AUC sums up the same curve from the lowest dose to the 256-fold higher top dose: 1 means no effect, lower means more sensitive. An inferred top dose was derived from the fitted curves, not read from the paper. For some of these results: Where an entry number is given, a second screen of the drug exists; the two often differ.
Experiments:
Assay in all cases: Viability of human cancer cell lines after 72 h of drug (GDSC screen)
Shikonin = compound: CC(C)=CC[C@@H](O)C1=CC(=O)c2c(O)ccc(O)c2C1=O [Shikonin]; conditions: top dose 16 µM; top dose inferred
Experimental: (§1)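 Human cancer cell lines in 384-well plates, medium with 10% serum, drug for 72 h over a 256-fold dose range (nine 2-fold or five 4-fold steps up to the top dose). Adherent lines were fixed and stained with the nucleic acid dye Syto60, suspension lines read with resazurin; signal relative to control wells, capped at 0 and 100%. One two-parameter sigmoid per drug and line, fitted in a mixed model over all curves with the slope shared within a line.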

Olaparib = compound: O=C(c1cc(Cc2n[nH]c(=O)c3ccccc23)ccc1F)N1CCN(C(=O)C2CC2)CC1 [Olaparib]
Experimental: as §1

Wee1 inhibitor 681640 = compound: O=C1NC(=O)c2c1c(-c1ccccc1Cl)cc1[nH]c3ccc(O)cc3c21 [Wee1 inhibitor 681640]; conditions: top dose 2 µM; top dose inferred
Experimental: as §1

BIRB 0796 = compound: Cc1ccc(-n2nc(C(C)(C)C)cc2NC(=O)Nc2ccc(OCCN3CCOCC3)c3ccccc23)cc1 [BIRB 0796]; conditions: top dose 10 µM; top dose inferred
Experimental: as §1

CGP-082996 (CINK4) = compound: CCNc1cc(NC2CCC(O)CC2)nc(Nc2ccc3c(ccn3Cc3ccccc3)c2)n1 [CGP-082996 (CINK4)]; conditions: top dose 5.12 µM; top dose inferred
Experimental: as §1

XMD8-85 = compound: COc1cc(N2CCN(C)CC2)ccc1Nc1ncc2c(n1)N(C)c1ccccc1C(=O)N2C [XMD8-85]; conditions: top dose 8 µM; top dose inferred
Experimental: as §1

BMS-536924 = compound: Cc1cc(N2CCOCC2)cc2[nH]c(-c3c(NC[C@@H](O)c4cccc(Cl)c4)cc[nH]c3=O)nc12 [BMS-536924]
Experimental: as §1

A-770041 = compound: COc1cc(-c2nn([C@H]3CC[C@H](N4CCN(C(C)=O)CC4)CC3)c3ncnc(N)c23)ccc1NC(=O)c1cc2ccccc2n1C [A-770041]; conditions: top dose 5.12 µM; top dose inferred
Experimental: as §1

SB-525334 = compound: Cc1cccc(-c2[nH]c(C(C)(C)C)nc2-c2ccc3nccnc3c2)n1 [SB-525334]; conditions: top dose 20 µM; top dose inferred
Experimental: as §1

VX-702 = compound: NC(=O)c1ccc(N(C(N)=O)c2c(F)cccc2F)nc1-c1ccc(F)cc1F [VX-702]; conditions: top dose 2 µM; top dose inferred
Experimental: as §1

[1] = top dose 5 µM, screen: GDSC drug entry 1017, top dose inferred
[2] = top dose 10 µM, screen: GDSC drug entry 1495
[3] = top dose 4 µM, screen: GDSC drug entry 1091, top dose inferred
[4] = top dose 5.12 µM, screen: GDSC drug entry 62

Row | Cell Line | AUC (Shikonin) | IC50 (Shikonin) [µM] | AUC (Olaparib; [1]) | IC50 (Olaparib; [1]) [µM] | AUC (Olaparib; [2]) | IC50 (Olaparib; [2]) [µM] | AUC (Wee1 inhibitor 681640) | IC50 (Wee1 inhibitor 681640) [µM] | AUC (BIRB 0796) | IC50 (BIRB 0796) [µM] | AUC (CGP-082996 (CINK4)) | IC50 (CGP-082996 (CINK4)) [µM] | AUC (XMD8-85) | IC50 (XMD8-85) [µM] | AUC (BMS-536924; [3]) | IC50 (BMS-536924; [3]) [µM] | AUC (BMS-536924; [4]) | IC50 (BMS-536924; [4]) [µM] | AUC (A-770041) | IC50 (A-770041) [µM] | AUC (SB-525334) | IC50 (SB-525334) [µM] | AUC (VX-702) | IC50 (VX-702) [µM]
1 | ME-1 (acute myeloid leukaemia, suspension) | 0.599 | 1.91 | 0.983 | > 5 | 0.95 | > 10 | 0.982 | > 2 | 0.988 | > 10 | 0.983 | > 5.12 | 0.844 | 6.36 | 0.987 | > 4 | 0.97 | > 5.12 | 0.973 | > 5.12 | 0.988 | > 20 | 0.984 | > 2
2 | MEG-01 (chronic myeloid leukaemia, suspension) | 0.356 | 0.411 | 0.975 | > 5 | 0.982 | > 10 | 0.939 | > 2 | 0.968 | > 10 | 0.883 | 4.91 | 0.844 | 5.23 | 0.957 | > 4 | 0.879 | 4.71 | 0.406 | 0.18 | 0.871 | 17 | 0.947 | > 2
3 | MFH-ino (soft tissue, adherent) | 0.482 | 0.886 | 0.853 | > 5 | 0.844 | 9.13 | 0.961 | > 2 | 0.97 | > 10 | 0.938 | > 5.12 | 0.848 | 7.62 | 0.954 | > 4 | 0.508 | 0.338 | 0.66 | 0.971 | 0.97 | > 20 | 0.953 | > 2
4 | MHH-NB-11 (neuroblastoma, adherent) | 0.598 | 1.91 | 0.981 | > 5 | – | – | 0.941 | > 2 | 0.984 | > 10 | 0.964 | > 5.12 | 0.882 | > 8 | – | – | 0.983 | > 5.12 | 0.952 | > 5.12 | 0.879 | > 20 | 0.959 | > 2
5 | MHH-PREB-1 (B-cell leukaemia, suspension) | 0.373 | 0.466 | 0.987 | > 5 | 0.963 | > 10 | 0.982 | > 2 | 0.987 | > 10 | 0.849 | 3.25 | 0.821 | 4.01 | 0.906 | > 4 | 0.862 | 3.66 | 0.778 | 1.86 | 0.95 | > 20 | 0.98 | > 2
6 | ML-2 (acute myeloid leukaemia, suspension) | 0.443 | 0.71 | 0.953 | > 5 | 0.877 | 8.11 | 0.986 | > 2 | 0.99 | > 10 | 0.964 | > 5.12 | 0.89 | 7.42 | 0.927 | > 4 | 0.41 | 0.187 | 0.929 | > 5.12 | 0.99 | > 20 | 0.944 | > 2
7 | MOLP-8 (myeloma, suspension) | 0.156 | 0.0922 | 0.972 | > 5 | 0.958 | > 10 | 0.956 | > 2 | 0.97 | > 10 | 0.945 | > 5.12 | 0.743 | 2.41 | 0.747 | 1.24 | 0.532 | 0.389 | 0.956 | > 5.12 | 0.828 | 11.7 | 0.954 | > 2
8 | MOLT-4 (lymphoblastic leukaemia, suspension) | 0.373 | 0.481 | 0.929 | > 5 | 0.904 | 8.89 | 0.948 | > 2 | 0.99 | > 10 | 0.992 | > 5.12 | 0.962 | > 8 | 0.945 | > 4 | 0.891 | 4.03 | 0.914 | 5.06 | 0.976 | > 20 | 0.97 | > 2
9 | MONO-MAC-6 (acute myeloid leukaemia, suspension) | 0.317 | 0.298 | 0.973 | > 5 | 0.934 | > 10 | 0.923 | > 2 | 0.983 | > 10 | 0.969 | > 5.12 | 0.911 | > 8 | 0.694 | 0.905 | 0.602 | 0.62 | 0.982 | > 5.12 | 0.953 | > 20 | 0.939 | > 2
10 | MRK-nu-1 (breast, suspension) | 0.151 | 0.0949 | 0.969 | > 5 | 0.981 | > 10 | 0.987 | > 2 | 0.99 | > 10 | 0.836 | 3.01 | 0.918 | > 8 | 0.984 | > 4 | 0.965 | > 5.12 | 0.851 | 3.43 | 0.851 | 13.5 | 0.962 | > 2
11 | MS-1 (small cell lung carcinoma, suspension) | 0.58 | 1.61 | 0.981 | > 5 | 0.96 | > 10 | 0.975 | > 2 | 0.982 | > 10 | 0.947 | > 5.12 | 0.858 | 5.51 | 0.938 | > 4 | 0.971 | > 5.12 | 0.907 | > 5.12 | 0.945 | > 20 | 0.964 | > 2
12 | NB17 (neuroblastoma, adherent) | 0.24 | 0.155 | 0.984 | > 5 | 0.932 | > 10 | 0.948 | > 2 | 0.972 | > 10 | 0.937 | > 5.12 | 0.971 | > 8 | – | – | 0.799 | 2.9 | 0.895 | > 5.12 | 0.78 | 9.55 | 0.984 | > 2
13 | NCI-H64 (small cell lung carcinoma, suspension) | 0.312 | 0.347 | 0.996 | > 5 | – | – | 0.98 | > 2 | 0.992 | > 10 | 0.996 | > 5.12 | 0.995 | > 8 | – | – | 0.996 | > 5.12 | 0.996 | > 5.12 | 0.996 | > 20 | 0.995 | > 2
14 | NCI-H69 (small cell lung carcinoma, suspension) | 0.752 | 5.86 | 0.986 | > 5 | 0.952 | > 10 | 0.982 | > 2 | 0.984 | > 10 | 0.948 | > 5.12 | 0.941 | > 8 | 0.939 | > 4 | 0.92 | > 5.12 | 0.971 | > 5.12 | 0.981 | > 20 | 0.982 | > 2
15 | NCI-H187 (small cell lung carcinoma, suspension) | 0.629 | 2.34 | 0.981 | > 5 | 0.949 | > 10 | 0.985 | > 2 | 0.988 | > 10 | 0.952 | > 5.12 | 0.987 | > 8 | 0.987 | > 4 | 0.762 | 1.98 | 0.966 | > 5.12 | 0.791 | 9.81 | 0.987 | > 2
16 | NCI-H209 (small cell lung carcinoma, suspension) | 0.728 | 4.71 | 0.702 | 1.21 | 0.722 | 2.81 | 0.799 | 1.04 | 0.975 | > 10 | 0.939 | > 5.12 | 0.944 | > 8 | 0.978 | > 4 | 0.986 | > 5.12 | 0.986 | > 5.12 | 0.536 | 1.58 | 0.978 | > 2
17 | NCI-H211 (small cell lung carcinoma, adherent) | 0.442 | 0.697 | 0.927 | > 5 | 0.925 | > 10 | 0.976 | > 2 | 0.983 | > 10 | 0.951 | > 5.12 | 0.909 | > 8 | 0.951 | > 4 | 0.882 | > 5.12 | 0.834 | 3.21 | 0.759 | 6.8 | 0.987 | > 2
18 | NCI-H510A (small cell lung carcinoma, semi-adherent) | 0.873 | 13.3 | 0.98 | > 5 | – | – | 0.962 | > 2 | 0.982 | > 10 | 0.935 | > 5.12 | 0.957 | > 8 | – | – | 0.953 | > 5.12 | 0.883 | 4.68 | 0.841 | 12.3 | 0.975 | > 2
19 | NCI-H526 (small cell lung carcinoma, suspension) | 0.643 | 2.45 | 0.966 | > 5 | 0.971 | > 10 | 0.958 | > 2 | 0.99 | > 10 | 0.967 | > 5.12 | 0.884 | > 8 | 0.989 | > 4 | 0.942 | > 5.12 | 0.99 | > 5.12 | 0.943 | > 20 | 0.982 | > 2
20 | NCI-H1092 (small cell lung carcinoma, suspension) | 0.573 | 1.59 | 0.978 | > 5 | 0.985 | > 10 | 0.99 | > 2 | 0.984 | > 10 | 0.987 | > 5.12 | 0.976 | > 8 | 0.974 | > 4 | 0.924 | > 5.12 | 0.988 | > 5.12 | 0.825 | 12.1 | 0.977 | > 2
21 | NCI-H1417 (small cell lung carcinoma, suspension) | 0.477 | 0.856 | 0.89 | > 5 | 0.773 | 4.65 | 0.927 | > 2 | 0.979 | > 10 | 0.963 | > 5.12 | 0.955 | > 8 | 0.575 | 0.418 | 0.94 | > 5.12 | 0.982 | > 5.12 | 0.824 | 15 | 0.979 | > 2
22 | NCI-H1836 (small cell lung carcinoma, suspension) | 0.466 | 0.801 | 0.988 | > 5 | 0.877 | > 10 | 0.986 | > 2 | 0.984 | > 10 | 0.983 | > 5.12 | 0.979 | > 8 | 0.932 | > 4 | 0.905 | > 5.12 | 0.974 | > 5.12 | 0.98 | > 20 | 0.987 | > 2

— the supplement of paper PMC4967469
